# Assay results as given in the supplement of paper PMC11417369.
# ± gives the standard deviation of the averaged measurements. Some of the results follow.
# System: PfAP2-I AP2 domain 3 (GST-tagged)
# Test: gcPBM binding intensity (ln(normalized median fluorescence intensity)); higher = stronger DNA binding
# Summary of the method: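 The binding buffer was 1× PBS containing 1% milk, 0.2 mg/ml BSA, 0.5% salmon testes DNA and 0.03% Triton X-100. In it, GST-tagged P. falciparum DNA-binding domains expressed in E. coli were applied for 1 h to an Agilent 4 × 180k array of primer-extended double-stranded 36-bp intergenic genomic probes plus negative controls. Binding intensity, read with Alexa488 anti-GST antibody and a 488 nm scan, is the highest Masliner-normalised natural-log median intensity across replicate spots of either probe orientation.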
row,Sequence,gcPBM binding intensity (ln)
1,AAATTATTTCTTTGCGCATGTAGCTTTTATACTATT [TGCATGCA_site819],8.68 ± 0.69
2,ACATAAATAATAAAAACACACATATGTACCTATATA [CACACA_site6982],7.87 ± 0.5
3,AATACATGCTAAAAACGTACACGTATAAAATTATAT [XGTACX_site3169],7.97 ± 0.35
4,TTTTTTTTTTTGGCTAGTACATATGTATTTAAAATG [XGTACX_site7770],8.08 ± 0.65
5,GGTGAAATTATTTCTACATGCAGAAATAATTAATTA [TGCATGCA_site194],7.64 ± 0.56
6,AATTTAATATAATGCACACATAAAAAAAAAATCAAA [CACACA_site1],10.9 ± 0.65
7,AAAAAAAAAAAAAAAACACACACATGCACATCATAT [CACACA_site8083],8.94 ± 0.53
8,ACAAAATAAAACATCTGTACATATTATTATTATAAG [XGTACX_site4802],7.63 ± 0.38
9,TATATTTATAACAACACACACAGATCATAAAACTGC [CACACA_site7086],7.87 ± 0.66
10,AAAAAAAACACGCGCACACACACACCCACCCACCGA [CACACA_site2206],8.38 ± 0.77
11,TATACACTTATTGGTGGTACAATATATAAATATATG [XGTACX_site3289],7.67 ± 0.23
12,CAAAAGTAAGCACGCACACACAACATGAAATAAAAT [CACACA_site165],8.32 ± 0.49
13,TTTTGATCTGAAGGAACCTAAAAAGGGAAGAGAAAA [CACACA_negctrl_site1656],7.56 ± 0.3
14,ATTAGTATAATGTAACTTAGTTAATAGTGCTAATAT [CACACA_negctrl_site764],9.54 ± 0.4
15,TTTTTAATATATTAGGTGCACAATAATACACTTTAT,11.51 ± 0.064
16,TATATATATATTTATACACACACATATATTTATATA [CACACA_site8054],8.89 ± 0.014
17,AATAAACATAAATAAAAATTATAAAATATATATATG [CACACA_negctrl_site1709],7.49 ± 0.44
18,ATATATATATATATTACACACTTTTTCTTTTTTTTT [CACACA_site2780],9.41 ± 0.35
19,TTTACATTTCAGTAGACACACAAAAAATAATACTAA [CACACA_site512],7.75 ± 0.34

row,Sequence,gcPBM binding intensity (ln)
1,AAAAAAAAATATACATATATATATATATATATATAT [CACACA_negctrl_site1763],9.29 ± 0.34
2,GAAAAAAAAGCTTGCACACGTATTTGCTTTATGTAT [CACACA_site4931],8.11 ± 0.53
3,TACATATATATATTATGTACATAAGGTTTGAGTTCA [XGTACX_site2726],7.8 ± 0.59
4,TTTTTGGTATTATTGTGTACTTATAAATAATATAAT [XGTACX_site4019],8.19 ± 0.33
5,CAAGTAGATATTATACGTACATATATATATATATAT [XGTACX_site8349],9.34 ± 0.57
6,ATATATATAAATAATTGTACATAATAATAAAATATA [XGTACX_site4839],7.93 ± 0.56
7,ATATTTTGTAACTATACACACATATTTATATTATAA [CACACA_site7433],7.79 ± 0.53
8,ATATAAAATATTACGTGTACACATAAATAAAAATAA [XGTACX_site3746],8.46 ± 0.092
9,TAAAAAATATACATTCGTACATATATATTATATATA [XGTACX_site7918],7.56 ± 0.41
10,TTTTATACATATTTTACACACTAAAATATACCTATA [CACACA_site6286],8.23 ± 0.71
11,AAAAAAAAAAAAAAAAGTACAAAAAGAAGAAAAAAA [XGTACX_site6521],8.59 ± 0.5
12,TTTTTTTTTTTTACGTGTACATAAATGTTAAGTAAT [XGTACX_site3901],8.2 ± 0.58
13,AAAATATAGGTATGCACACACATATACTTCTGTGCA [CACACA_site1409],8.68 ± 0.49
14,TTTTTTTTTTTTTTTTTTTTTTTATGTTCTTAAAAA [GTGCAC_negctrl_site62],8.07 ± 0.87
15,TATAAATATTTATGTACACACATATACATGTTGAAT [CACACA_site5684],7.95 ± 0.43
16,TTATATTCTTTTCTCTTTCTACTTTTTTTTTTTTTT [XGTACX_negctrl_site317],7.88 ± 0.52
17,AAGAAAAACTTATATATATATATATATATATATATA [TGCATGCA_negctrl_site466],9.36 ± 0.85
18,TCATACATGTATATGTGTACATATAATGTATATTCC [XGTACX_site6082],7.64 ± 0.38
19,TTTTTTTAATGATATTGTACATTAATAAAAAATATG [XGTACX_site1719],7.76 ± 0.14

row,Sequence,gcPBM binding intensity (ln)
1,TCTTTTTCAAGATGACGTACTTAGATTAATATAAAA [XGTACX_site3931],7.79 ± 0.4
2,ATTTGATATATAATAATACACACTTACATAATTAAT [CACACA_site290],7.88 ± 0.43
3,ATATGATCATTTTATCATTTTGCTTTTTCTTTTTTT [CACACA_negctrl_site1325],7.46 ± 0.64
4,ATCGTGTTAAATGTTGTGCACATATAAATTACAAAA [GTGCAC_site9822],10.605 ± 0.007
5,AATTTTGGAACGTGCACACATATGTAATATATATAT [CACACA_site3067],10.7 ± 0.085
6,TAAATATATAATAAATGTACATATTAATATTATGGT [XGTACX_site1498],7.84 ± 0.46
7,CAATGTTAACATATTACACACATATGTATTTATAAC [CACACA_site7314],7.88 ± 0.54
8,AAAAAAAATTTAATTGCACACAGGAAAATATAATTT [CACACA_site3810],9.24 ± 0.18
9,TAAATACAGAGGAAAATACACACGTATATATATAAA [CACACA_site3410],7.67 ± 0.6
10,TATAAATATACAAACACACATACAAACATATATATA [CACACA_site1120],8.11 ± 0.62
11,TTAATACCCAGACACACACACACAAAATAAAATACA [CACACA_site7968],8.07 ± 0.18
12,AAATTTCATGGGTATTGTACATAATTTTATTATATA [XGTACX_site4988],7.58 ± 0.42
13,ACAAAACTGTCTTTCACACAGAAATAAAAAAAAAAA [CACACA_site5829],7.82 ± 0.77
14,TGATAAGGATGTGAATTACTCAAAGGAAGTAATCAT [CACACA_negctrl_site1432],7.53 ± 0.7
15,ACATAAGATGAAAAATGTACATTCAAAAAATGAAAT [XGTACX_site3227],7.62 ± 0.68
16,TTTTAAATATGCCATACACACTACTATATAATAAAT [CACACA_site5119],7.81 ± 0.59
17,AAAAAAAAAAAATATTGTAGAATATGATGACTTTGT [GTGCAC_negctrl_site554],7.47 ± 0.6
18,ATTTTATTTTCATATGAACACACATATATATATTAT [CACACA_site8741],8.35 ± 0.45
